In the RNAGym collection of RNA variant scans (doi:10.1093/nar/gkz1192):
The source gives no read counts; variants with many changes may rest on few reads.

B1: CPEB3 Ribozyme (parent)
chain: UAACAGGGGGCCACAGCAGAAGCGUUCACGUCGCAGCCCCUGUCAGAUUCUGGUGAAUCUGCGAAUUCUGCUGUAUAUCUC

Variants of: B1
Assay: self-cleavage, relative activity (ratio to wild type); higher = more cleavage; in vitro, sequencing
How it was run: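 Relative activity was defined as the cleaved/total read fraction for a variant divided by the same fraction for the unmutated ribozyme. CPEB3 self-cleaving ribozyme libraries were made by rounds of error-prone PCR, barcoded, and transcribed in vitro with T7 RNA polymerase for 5 hours at 37°C, and cleavage ran through transcription plus a 15 min DNase I step before EDTA. Illumina sequencing of template-switched reverse transcripts gave the reads, and DNA sequencing mapped the barcodes. Averages come from three batches, using variants with at least 5 reads.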

Variant	self-cleavage
A21U U25C U31C U49C	0.15
A21G U41C U74A	1.06
A21G U25C A47G U54C A64G	0.07
A21G U41G G70C	0.09
A21G U41A A47G C59A	0.16
A21G U31A A57G U66A A75G	0.06
A21U C37A U60C	0.1
A21G U25A U49A U60C	0.08
A21U G52U U58C A65G U80A	0.09
A21G U69C U74C	0.26
A21G U31A U51C U76A	0.18
A21U U26C U80C	0.04
A21G U51A U74A	1.14
A21G U31C A45G U72A	0.07
A21G U25C U54A A64G A65G	0.06
A21G U31C U54C A64U	0.11
A21G U26C G55A A57G U66C	0.08
A21G U48C A65G	0.13
A21G U51A G55A U67C U72C U78C	0.17
A21G U48C U51A A57G U60C	0.25
A21U U41A U74C	0.24

Variant	self-cleavage
A21U G33A U49C U72C	0.08
A21G U26C G55A	0.27
A21U U25C G55A G70A	0.43
A21G U25C A57G U69C U78C	0.17
A21U A45G U58C	0.22
A21G U26C U69A	0.2
A21U U31C U66C	0.15
A21G U60G A75U	0.45
A21G U31C U41C U58A	0.09
A21U U41C A57C	0.09
A21G U26A U54C C81U	0.62
A21U A45U U60G	0.14
A21U U26C A35G	0
A21U C27A G42A A75G	0.09
A21G U51C U80A	0.66
A21G U43C C59U U78C	0.22
A21G U25C A47G U54C G70A U72C	0.06
A21U U26A U78A	0.3
A21G U41C U49A U72A	0.51
A21G U26C U48C A56U	0.07
A21G U51A A77G	0.85

Variant	self-cleavage
A21G U25C A28G U72A	0.07
A21G U26G U66C	0.23
A21G U25G U31A U41A A65G U80C	0.07
A21G U31A U51A A57G U80A	0.16
A21G U26C A56U U72A	0.05
A21G U54C A64U U78C	0.09
A21U A28G U31A	0.09
A21G U25C C37A U41C C68A	0.35
A21U G30A U58C U76A	0.07
A21G U25A U26C	0.22
A21G U26C U67C	0.09
A21G U25C U43C A45C C79G	0.02
A21G U41C U74C U80A	0.94
A21G U26C U58C	0.25
A21G U69A G70U	0.12
A21G U26A U60C	0.19
A21G U25C U43C U51A U66C	0.21
A21G U43C U72C U74A	0.28
A21U U41C A57U U58A U72C C81G	0.05
A21U U26C A56G U80A	0.18
A21U C29U A47G U51C G63A	0.11

Variant	self-cleavage
A21G U48C U60C U78C	0.06
A21G U48C U58C	0.11
A21G U43A U58C	0.12
A21G U43A U51C U60C U72A	0.26
A21G U26A U60C U80A	0.26
A21G U43A A47U U54A A57G	0.09
A21U U41A U78C	0.16
A21G U25C U26A A47G A56C A65U U80C	0.09
A21G U25C U49C	0.16
A21G U31A U51A	0.29
A21G U49C A56G	0.7
A21G U49C A56U	0.14
A21G U43C U49C U58C G70C U80C	0.09
A21G U43A U51C A64G	0.24
A21G U51C U67A U72C	0.18
A21G U54A A64U U80C	0.14
A21G U58C U72C	0.24
A21G U58C A75U	0.55
A21G U26A A35U A75G U80A	0.1
A21G U48A G55A U72C	0.06
